Drawing on patent US11618753B2 (priority 2018, dated 2023), this text covers IC50 for 23 compounds.

Where a name gives a salt, the structure may show the parent alone.

The experiment has as its system MLKL phosphorylation, HT29-L23 human colorectal adenocarcinoma cells. Description: cells. The note with it: read-out: pMLKL HCS Cell Assay (IC50, uM).
As usually defined, the IC50 is the concentration that gives 50% inhibition. As to `COc1nc(C)c(-c2cc(C(F)(F)F)c3c(N)ncnn23)cc1C(=O)NCCC(O)(c1ccccc1)C(F)(F)F` (centres unmarked) [Example 288, 5-[4-amino-5-(trifluoromethyl)pyrrolo[2,1-f][1,2,4]triazin-7-yl]-2-methoxy-6-methyl-N-(4,4,4-trifluoro-3-hydroxy-3-phenylbutyl)pyridine-3-carboxamide], the half-inhibitory concentration (IC50) is 0.276 µM.

Turning to `COc1ncc(-c2cc(CN3CC(F)(F)C3)c3c(N)ncnn23)cc1C(=O)N[C@@H]1CN(C(=O)[C@@](C)(O)C(F)(F)F)C[C@@H]1F` [Example 1616, 5-{4-amino-5-[(3,3-difluoroazetidin-1-yl)methyl]pyrrolo[2,1-f][1,2,4]triazin-7-yl}-N-[(3R,4S)-4-fluoro-1-[(2R)-3,3,3-trifluoro-2-hydroxy-2-methylpropanoyl]pyrrolidin-3-yl]-2-methoxypyridine-3-carboxamide], the IC50 amounted to 0.00024 µM.

Regarding `COc1ncc(-c2cc(CN3CCC(F)(F)CC3)c3c(N)ncnn23)cc1C(=O)N[C@@H]1CN(C(=O)c2cccc(F)c2Cl)C[C@@H]1F` [Example 1265, 5-{4-amino-5-[(4,4-difluoropiperidin-1-yl)methyl]pyrrolo[2,1-f][1,2,4]triazin-7-yl}-N-[(3R,4S)-1-(2-chloro-3-fluorobenzoyl)-4-fluoropyrrolidin-3-yl]-2-methoxypyridine-3-carboxamide], the IC50 was found to be 0.00072 µM.

Turning to `COc1c(F)cc(-c2cc(C(F)(F)F)c3c(N)ncnn23)cc1C(=O)N[C@@H]1CN(C(=O)CC(O)(C(F)(F)F)C(F)(F)F)C[C@@H]1F` [Example 690, 5-[4-amino-5-(trifluoromethyl)pyrrolo[2,1-f][1,2,4]triazin-7-yl]-3-fluoro-N-[(3R,4S)-4-fluoro-1-[4,4,4-trifluoro-3-hydroxy-3-(trifluoromethyl)butanoyl]pyrrolidin-3-yl]-2-methoxybenzamide], the IC50 came out at 0.005 µM.

As to `COc1ncc(-c2cc(C(F)(F)F)c3c(N)ncnn23)cc1C(=O)NC1CN(C(C)c2ccnc(F)c2F)C[C@@H]1F` (stereo partly drawn) [Example 1387, 5-[4-amino-5-(trifluoromethyl)-pyrrolo[2,1-f][1,2,4]triazin-7-yl]-N-[(3R,4S)-1-[1-(2,3-difluoropyridin-4-yl)ethyl]-4-fluoropyrrolidin-3-yl]-2-methoxypyridine-3-carbox-amide], the IC50 worked out at 0.004 µM.

With `COc1ncc(-c2cc(CN3CCC(F)(F)CC3)c3c(N)ncnn23)cc1C(=O)N[C@@H]1CN(C(=O)[C@@](C)(O)C(F)(F)F)C[C@@H]1F` [Example 1586, 5-{4-amino-5-[(4,4-difluoropiperidin-1-yl)methyl]pyrrolo[2,1-f][1,2,4]triazin-7-yl}-N-[(3R,4S)-4-fluoro-1-[(2R)-3,3,3-trifluoro-2-hydroxy-2-methylpropanoyl]pyrrolidin-3-yl]-2-methoxypyridine-3-carboxamide], the IC50 is 0.0006 µM.

In the case of `Cc1ccc(-c2cc(C(F)(F)F)c3c(N)ncnn23)cc1C(=O)N[C@@H]1CN(C(=O)c2ccc(F)cc2F)C[C@@H]1F` [Example 1022, 5-[4-amino-5-(trifluoromethyl)pyrrolo[2,1-f][1,2,4]triazin-7-yl]-N-[(3R,4S)-1-(2,4-difluorobenzoyl)-4-fluoropyrrolidin-3-yl]-2-methylbenzamide], the IC50 is 0.0046 µM.

As for `CC(C)(F)C(=O)N1C[C@H](F)[C@H](NC(=O)c2cc(-c3cc(C(F)(F)F)c4c(N)ncnn34)ccc2OCC(F)(F)F)C1` [Example 1063, 5-[4-amino-5-(trifluoromethyl)pyrrolo[2,1-f][1,2,4]triazin-7-yl]-N-[(3R,4S)-4-fluoro-1-(2-fluoro-2-methylpropanoyl)pyrrolidin-3-trifluoroethoxy)benzamide], the IC50 was 0.414 µM.

As to `COc1ncc(-c2cc(C(F)(F)F)c3c(N)ncnn23)cc1C(=O)N[C@@H]1CN(C2CCc3ncccc32)C[C@@H]1F` (stereo partly drawn) [Example 1364, 5-[4-amino-5-(trifluoromethyl)-pyrrolo[2,1-f][1,2,4]triazin-7-yl]-N-[(3R,4S)-1-{5H,6H, 7H-cyclopenta[b]pyridin-5-yl}-4-fluoropyrrolidin-3-yl]-2-methoxypyridine-3-carboxamide], the half-inhibitory concentration (IC50) was 0.045 µM.

Turning to `Cc1ncc(-c2cc(C(F)(F)F)c3c(N)ncnn23)cc1C(=O)Nc1cn(Cc2ccc(C(F)(F)F)cc2)cn1` [Example 1805, 5-(4-amino-5-(trifluoromethyl)pyrrolo[2,1-f][1,2,4]triazin-7-yl)-2-methyl-N-(1-(4-(trifluoromethyl)benzyl)-1H-imidazol-4-yl)nicotinamide], the IC50 was found to be 0.002 µM.

As for `Nc1ncnn2c(-c3cc(C(=O)N[C@@H]4CN(C(=O)C5(O)CCCC5)C[C@@H]4F)c(Cl)cc3F)cc(C(F)(F)F)c12` [Example 397, 5-[4-amino-5-(trifluoromethyl)pyrrolo[2,1-f][1,2,4]triazin-7-yl]-2-chloro-4-fluoro-N-[(3R,4S)-4-fluoro-1-(1-hydroxycyclopentanecarbonyl)pyrrolidin-3-yl] benzamide, TFA], the IC50 amounted to 0.0087 µM.

Take `CCn1cncc1CN1CC(F)C(NC(=O)c2cc(-c3cc(C(F)(F)F)c4c(N)ncnn34)cnc2OC)C1` (racemic) [Example 220, 5-[4-amino-5-(trifluoromethyl)pyrrolo[2,1-f][1,2,4]triazin-7-yl]-N-{1-[(1-ethyl-1H-imidazol-5-yl)methyl]-4-fluoropyrrolidin-3-yl}-2-methoxypyridine-3-carboxamide]: the IC50 came to 0.089 µM.

Consider `CC(C)(C)C(=O)N1C[C@H](F)[C@H](NC(=O)c2cccc(-c3cc(CN4CC(F)(F)C4)c4c(N)ncnn34)c2)C1` [Example 1170, 3-{4-amino-5-[(3,3-difluoroazetidin-1-yl)methyl]pyrrolo[2,1-f][1,2,4]triazin-7-yl}-N-[(3R,4S)-1-(2,2-dimethylpropanoyl)-4-fluoropyrrolidin-3-yl]benzamide], for which the IC50 came out at 0.00074 µM.

For `Cc1cc(F)c(-c2cc(C(F)(F)F)c3c(N)ncnn23)cc1C(=O)N[C@@H]1CN(C(=O)c2ncccc2Cl)C[C@@H]1F` [Example 841, 5-[4-amino-5-(trifluoromethyl)pyrrolo[2,1-f][1,2,4]triazin-7-yl]-N-[(3R,4S)-1-(3-chloropyridine-2-carbonyl)-4-fluoropyrrolidin-3-yl]-4-fluoro-2-methylbenzamide], the half-inhibitory concentration (IC50) was found to be 0.025 µM.

Regarding `COc1ncc(-c2cc(C(F)(F)F)c3c(N)ncnn23)cc1C(=O)N[C@@H]1CN(C(=O)OCCO)C[C@@H]1F` [Example 1453, 2-hydroxyethyl (3R,4S)-3-{5-[4-amino-5-(trifluoromethyl)pyrrolo[2,1-f][1,2,4]triazin-7-yl]-2-methoxypyridine-3-amido}-4-fluoropyrrolidine-1-carboxylate], the IC50 was found to be 0.318 µM.

Regarding `COc1cc(F)c(-c2cc(C(F)(F)F)c3c(N)ncnn23)cc1C(=O)N[C@@H]1CN(C(=O)[C@@](C)(O)C(F)(F)F)C[C@@H]1F` [Example 867, 5-[4-amino-5-(trifluoromethyl)pyrrolo[2,1-f][1,2,4]triazin-7-yl]-4-fluoro-N-[(3R,4S)-4-fluoro-1-[(2R)-3,3,3-trifluoro-2-hydroxy-2-methylpropanoyl]pyrrolidin-3-yl]-2-methoxybenzamide], the IC50 is 0.0023 µM.

On to `CNC(=O)c1cc(-c2cnc(OC)c(C(=O)NCC[C@H](O)c3ccc(Cl)cc3)c2)n2ncnc(N)c12` [Example 477, 5-[4-amino-5-(methylcarbamoyl)pyrrolo[2,1-f][1,2,4]triazin-7-yl]-N-[(3S)-3-(4-chlorophenyl)-3-hydroxypropyl]-2-methoxypyridine-3-carboxamide], for which the IC50 amounted to 0.072 µM.

With `Cc1cc(C(=O)N2C[C@H](F)[C@H](NC(=O)c3cc(-c4cc(C(F)(F)F)c5c(N)ncnn45)ccc3Cl)C2)ccn1` [Example 960, 5-[4-amino-5-(trifluoromethyl)pyrrolo[2,1-f][1,2,4]triazin-7-yl]-2-chloro-N-[(3R,4S)-4-fluoro-1-(2-methylpyridine-4-carbonyl)pyrrolidin-3-yl]benzamide], the concentration for half-maximal inhibition (IC50) came to 0.194 µM.

In the case of `Cc1cc(F)c(C(=O)N[C@@H]2CN(C(=O)[C@@](C)(O)C(F)(F)F)C[C@@H]2F)cc1-c1cc(C(F)(F)F)c2c(N)ncnn12` [Example 394, 5-[4-amino-5-(trifluoromethyl)pyrrolo[2,1-f][1,2,4]triazin-7-yl]-2-fluoro-N-[(3R,4S)-4-fluoro-1-[(2R)-3,3,3-trifluoro-2-hydroxy-2-methylpropanoyl]pyrrolidin-3-yl]-4-methyl-benzamide], the IC50 stood at 0.076 µM.

With `CCOc1ccc(-c2cc(C(F)(F)F)c3c(N)ncnn23)cc1C(=O)N[C@@H]1CN(C(=O)CC(O)(C(F)(F)F)C(F)(F)F)C[C@@H]1F` [Example 1106, 5-[4-amino-5-(trifluoromethyl)pyrrolo[2,1-f][1,2,4]triazin-7-yl]-2-ethoxy-N-[(3R,4S)-4-fluoro-1-[4,4,4-trifluoro-3-hydroxy-3-(trifluoromethyl)butanoyl]pyrrolidin-3-yl]benzamide], the IC50 worked out at 0.0043 µM.

For the compound `COc1ncc(-c2cc(CN3CCC(F)(F)CC3)c3c(N)ncnn23)cc1C(=O)N[C@@H]1CN(C(=O)c2cc(F)cc(F)c2)C[C@@H]1F` [Example 1267, 5-{4-amino-5-[(4,4-difluoropiperidin-1-yl)methyl]pyrrolo[2,1-f][1,2,4]triazin-7-yl}-N-[(3R,4S)-1-(3,5-difluorobenzoyl)-4-fluoropyrrolidin-3-yl]-2-methoxypyridine-3-carboxamide], the half-maximal inhibitory concentration (IC50) came to 0.0011 µM.

`Cc1ccc(-c2cc(CN3CCC(C(F)(F)F)CC3)c3c(N)ncnn23)cc1C(=O)N[C@@H]1CN(C(=O)C2CC2(F)F)C[C@@H]1F` (stereo partly drawn) [Example 1649, 5-(4-amino-5-{[4-(trifluoromethyl)piperidin-1-yl]methyl}pyrrolo[2,1-f][1,2,4]triazin-7-yl)-N-[(3R,4S)-1-(2,2-difluorocyclopropanecarbonyl)-4-fluoropyrrolidin-3-yl]-2-methylbenzamide]: the IC50 came to 0.0018 µM.

In the case of `Cc1ncc(-c2cc(C(F)(F)F)c3c(N)ncnn23)cc1C(=O)N[C@@H]1CN(C(=O)[C@@](C)(O)C(F)(F)F)C[C@@H]1F` [Example 366, 5-[4-amino-5-(trifluoromethyl)pyrrolo [2,1-f][1,2,4]triazin-7-yl]-N-[(3R,4S)-4-fluoro-1-[(2R)-3,3,3-trifluoro-2-hydroxy-2-methylpropanoyl]pyrrolidin-3-yl]-2-methylpyridine-3-carboxamide], the IC50 worked out at 0.018 µM.
